From PubChem BioAssay AID488969 (Vanderbilt High Throughput Screening Facility, 2010)
Whole data set: some 110,000 compounds, median “z-score” near -0.1, cut for the highest 2% near 2. The list shows a part of the results. Activity calls are given as the source filed them.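 Rule for the calls: active = z-score in the third read window above 3 or below -3; inactive = the rest.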

target: Metabotropic glutamate receptor 8 (Rattus norvegicus) (UniProt P70579); assay: rat mGluR8 modulators via GIRK flux, primary screen, cell-based, thallium flux, HTS (AID 488969); conditions: HEK293 rat mGluR8, GIRK (G protein-gated inwardly rectifying potassium channel) thallium flux, FluoZin2; at 10 µM; stronger effect = higher value; submaximal glutamate (EC20) added with thallium
Chain of UniProt P70579 (P70579 whole entry, looked up): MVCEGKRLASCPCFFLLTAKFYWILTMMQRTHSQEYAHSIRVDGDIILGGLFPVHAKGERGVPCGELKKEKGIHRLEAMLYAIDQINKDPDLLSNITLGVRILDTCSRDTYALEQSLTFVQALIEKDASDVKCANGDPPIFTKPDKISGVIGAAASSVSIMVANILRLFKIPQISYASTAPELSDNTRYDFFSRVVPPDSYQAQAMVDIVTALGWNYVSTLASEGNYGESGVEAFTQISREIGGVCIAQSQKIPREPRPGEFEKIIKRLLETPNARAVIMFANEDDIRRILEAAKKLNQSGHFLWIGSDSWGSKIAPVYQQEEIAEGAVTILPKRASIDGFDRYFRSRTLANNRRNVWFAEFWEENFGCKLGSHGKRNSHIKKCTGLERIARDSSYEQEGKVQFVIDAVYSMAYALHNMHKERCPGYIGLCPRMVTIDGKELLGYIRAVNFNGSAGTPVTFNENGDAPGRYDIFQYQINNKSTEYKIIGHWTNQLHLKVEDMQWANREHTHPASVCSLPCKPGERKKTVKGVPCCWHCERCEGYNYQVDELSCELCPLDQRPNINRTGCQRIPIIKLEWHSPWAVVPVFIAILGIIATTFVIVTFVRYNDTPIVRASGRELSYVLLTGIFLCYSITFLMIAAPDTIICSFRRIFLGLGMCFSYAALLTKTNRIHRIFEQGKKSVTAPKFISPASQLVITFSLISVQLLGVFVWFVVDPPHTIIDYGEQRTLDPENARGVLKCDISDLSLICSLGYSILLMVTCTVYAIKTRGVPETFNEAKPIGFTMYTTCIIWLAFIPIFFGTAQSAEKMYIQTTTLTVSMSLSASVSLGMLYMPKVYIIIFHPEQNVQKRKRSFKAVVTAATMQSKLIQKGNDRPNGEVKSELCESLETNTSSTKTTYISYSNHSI

SMILES | z-score
COc1ccc(-c2nc3ccccc3c(=O)n2NC(=O)c2cccnc2Cl)cc1OC | 0.164
CC(C)(C)N(NC(=O)Nc1ccc(Cl)cc1)C(=O)c1ccccc1 | 1.25
Cc1cc(N2CCCCC2)nc(NCc2ccccc2)n1 | 0.794
N/C(=C/C(=O)c1ccccc1O)C(F)(F)F | -0.604
O=C(O)CC(NC(=O)COc1ccc(Cl)cc1Cl)C(=O)O (stereo unspecified) | 0.351
CC(=O)N1CCCc2cc(S(=O)(=O)NC(C(=O)NC(C)c3ccccc3)C(C)C)ccc21 (stereo unspecified) | -1.09
C[n+]1ccc(C(=O)N/N=C/c2ccco2)cc1 | -0.101
COc1ccc(CC(=O)Nn2c(-c3ccccc3)nc3ccccc3c2=O)cc1 | 0.469
N#CC1=C(N)Oc2n[nH]c(-c3ccccc3)c2C1c1cccc(OC(=O)N2CCOCC2)c1 (stereo unspecified) | 0.0175
Clc1ccc(-n2nnnc2SCc2cn3ccccc3n2)cc1 | -0.137
CC(C)NS(=O)(=O)c1ccc(OCC(=O)Nc2ccccc2F)cc1 | 0.0524
O=C(CSc1ccc(-c2ccco2)nn1)NCc1ccc(F)cc1 | 0.0645
CCN(CC)C(=O)C1CCN(c2ncnc3c2cnn3-c2ccc(C)cc2C)CC1 | -0.439
Fc1ccc(CNC(=S)Nc2ccc(Cl)cc2)cc1 | 0.385
Cc1cc2c(C)nc3ccccc3c2o1 | -0.371
Cc1ccc(S(=O)(=O)N(CC(=O)NCCSCc2ccco2)c2cc(C)ccc2C)cc1 | -0.0745
Cn1c(OCc2cccnc2)nc2c1c(=O)n(Cc1ccc(Cl)cc1)c(=O)n2C | -0.506
COc1ccc(-c2cc(N3C(=O)Nc4ccccc4N3O)n[nH]2)cc1OC | -0.444
CCOC(=O)c1sc(NN=C(C(=O)OC)C(=O)OC)c(C(=O)OCC)c1C | 2.57
CC(O)CN(C)CC/C=C1/c2ccccc2CSc2ccccc21 (stereo unspecified) | 0.694
CCOC1(NC(=O)c2ccccc2)C(C)=CC(=O)C=C1C | 0.317
O=C1c2ccncc2C(=O)N1CO | 1.16
COc1cccc(C(=O)N2CCN(Cc3cccc(F)c3)CC2)c1 | -0.151
NC(=O)Cc1ccc(Nc2nnc(-c3ccccc3)c3ccccc23)cc1 | 0.281

SMILES | z-score
Cc1cc(/C=N/n2c(COc3ccccc3)nc3ccccc3c2=O)c(O)c([N+](=O)[O-])c1 | -0.382
Cc1noc(C)c1COC(=O)CCC(=O)c1ccc(F)cc1 | 0.35
COc1ccccc1NC(=O)CSc1nnc(Cn2cnc3ccccc32)n1C | 0.264
CN1CCN(CCCNC(=O)c2nnc(Cc3c(F)cccc3Cl)o2)CC1 | 0.0779
CC(=O)c1ccccc1C(=O)NCc1cccnc1 | -0.207
COc1cc(N(C)C)c([N+](=O)[O-])cc1C(=O)NC(C)CNc1ccc([N+](=O)[O-])cc1Cl (stereo unspecified) | 0.259
COCCOC(=O)C1=C(C)NC2=C(C(=O)CCC2)C1c1ccc2c(c1)OCO2 (stereo unspecified) | -0.0243
O=C(O)CCc1ccc(-c2ccccc2)n1CC1CCCO1 (stereo unspecified) | -0.0265
COc1cc(NC(=S)NCc2ccco2)cc(OC)c1 | -0.0613
S=c1[nH]nc(C2CCCCC2)n1/N=C/c1cccs1 | 2.48
Cn1cnnc1SCCNS(=O)(=O)c1ccccc1 | -0.049
Cc1oc2c(c1C(=O)Nc1cccc3ccccc13)CCCC2 | -0.578
O=C(NCCc1ccccn1)C1CC(=O)N(Cc2ccccc2Cl)C1 (stereo unspecified) | -0.211
O=C(CSC1=NCCS1)Nc1cccc2ccccc12 | -0.117
CCOC(=O)C1=C(CSc2nc(-c3ccccc3)ccc2C#N)OC(N)=C(C#N)C1c1cccnc1 (stereo unspecified) | -0.107
CCCOP(=O)(c1ccc(N(C)C)cc1)C(O)c1cccnc1 (stereo unspecified) | 0.234
CN1C(=O)CC(N2CCN(CC(=O)N3CCCC3)CC2)C1=O (stereo unspecified) | 1.05
Cc1cc(OCCn2cc(/C(N)=N/O)c3ccccc32)ccc1Cl | -0.246
CCN(CC(=O)Nc1ccc2c(c1)OCCO2)C(=O)CC1CCCC1 | -0.356
COc1ccc(/C=C/C(=O)OCc2cc(=O)n3c(n2)sc2ccccc23)cc1 | -0.421
Cc1ccc2ccc(C3C(=O)c4ccccc4C3=O)nc2c1 | -0.226
Cc1ccc(SC(C)C(=O)Nc2c(C)n(C)n(-c3ccccc3)c2=O)cc1 (stereo unspecified) | 0.00102
CC1CCC(NC(=O)CC(C)(C)Cc2nc3ccccc3c(=O)[nH]2)CC1 (stereo unspecified) | -0.289
Cc1cccc(C)c1Oc1nc(-c2ccccc2)ncc1S(=O)(=O)c1ccccc1 | -0.0101

SMILES | z-score
O=C(COc1ccc(Br)cc1)Nc1ccc([N+](=O)[O-])cn1 | -0.114
O=C(O)CNC(=O)C1COc2ccccc2O1 (stereo unspecified) | -0.585
CC(=O)Nc1ccc(-c2csc(NC(=O)C3CCN(S(=O)(=O)c4cccs4)CC3)n2)cc1 | -0.103
Nc1ccc2nc(-c3ccccc3)[nH]c2c1 | 1.19
Cc1cccc(C)c1NC(=O)CN(C)CC(=O)Nc1cc(Cl)ccc1C#N | -0.401
CCOC(=O)c1c(C)[nH]c(C(=O)OCC(=O)N2CCN(S(=O)(=O)c3ccccc3)CC2)c1C | -0.532
CC(=O)Nc1ccc(S(=O)(=O)NC(C(=O)O)C2=CCC=CC2)cc1 (stereo unspecified) | 1.91
Cc1ccc(C(=O)CC(c2cccs2)S(=O)(=O)c2ccc(C)cc2)cc1 (stereo unspecified) | -0.0995
O=C(/C=C/Nc1cccc([N+](=O)[O-])c1)c1cccs1 | -0.294
Cc1ccccc1Cn1cc(/C=N/n2cnnc2)c2ccccc21 | 0.0847
COc1ccc(Cl)cc1NC(=O)CCN1CCN(c2ccccc2C)CC1 | 0.282
CCOC(=O)c1ccc(NC(=O)CSc2nnc(-c3ccncc3)n2C)cc1 | 0.118
O=C(COC(=O)c1ccco1)NC1CCCCC1 | 0.913
CCOc1ccccc1C(=O)OCC(=O)Nc1ccc(N2CCCCC2)cc1 | 0.0751
CCOc1ccc(S(=O)(=O)c2c(C(=O)c3ccc(C)cc3)cnc3cc4c(cc23)OCCO4)cc1 | -0.72
COc1ccc(C2=Nn3c(nnc3C3CCCCC3)SC2)cc1OC | active: -3.1
CCOc1ccc(OCCOCCOc2c(Cl)cccc2Cl)cc1 | -0.119
c1cnc(-c2nnc3n2CCCCC3)cn1 | -0.278
COC(=O)c1cc(NCc2ccc3c(c2)OCO3)ccc1N1CCOCC1 | -0.537
Cc1cc(/C=N/n2c(COc3ccccc3C)nc3ccccc3c2=O)c(O)c([N+](=O)[O-])c1 | -0.502
COc1ccc(C2N=C(c3ccccc3)NC(c3ccccc3)=N2)cc1 | -0.384
NNC(=O)C1=NOC(CNc2ncc(C(F)(F)F)cc2Cl)C1 (stereo unspecified) | 0.279
CC(C)CCNC(=O)C(c1ccc(O)cc1)N(Cc1cccs1)C(=O)C1COc2ccccc2O1 (stereo unspecified) | -0.136
